Results as given in the supplement of paper PMC10326071.
± gives the standard deviation of the averaged measurements. This is one part of the list. Most values come without repeats; read them as rough.

How the values were obtained:
[1] = tested on: SARS-CoV-2 nsp3 SARS-unique domain core (SUD-core, nsp3 residues 413-676); assay: dissociation rate constant koff (BLI); higher = faster dissociation; conditions: 100 µM; 25 °C
[2] = tested on: SARS-CoV-2 nsp3 SARS-unique domain core (SUD-core, nsp3 residues 413-676); assay: apparent dissociation constant Kd (single-concentration BLI fit); higher = weaker binding; conditions: 100 µM; 25 °C

| Compound | dissociation rate constant koff [1] | apparent dissociation constant Kd [2] |
| --- | --- | --- |
| C#C[C@@]1(O)[C@@H](CO)O[C@@H](n2ccc(N)nc2=O)[C@@H]1O | 0.0161 s⁻¹ | 6320 µM |
| COc1cc2c(cc1F)C(c1ccccc1Cl)=Nc1c(n[nH]c1C)N2 | 0.237 s⁻¹ | 62.6 µM |
| CCCCC[C@H](O)CC(=O)CCc1ccc(O)c(OC)c1 | 0.0151 s⁻¹ | 5.52 µM |
| C=CC(=O)N[C@H]1CCOC[C@H]1Nc1ncc2cc(-c3c(Cl)c(OC)cc(OC)c3Cl)ccc2n1 | 0.326 s⁻¹ | 2810 µM |
| CSC[C@H]1O[C@@H](n2cnc3c(N)ncnc32)[C@H](O)[C@@H]1O | 0.0142 s⁻¹ | 104 µM |
| Cn1cnc([N+](=O)[O-])c1Sc1ncnc2nc[nH]c12 | 0.316 ± 0.39 s⁻¹ | 7080 ± 7500 µM |
| CC(C)=CCc1c(O)ccc(C(=O)/C=C/c2ccc(O)cc2)c1O | 0.0622 s⁻¹ | 310 µM |
| COc1cc(C)c(Sc2cnc(NC(=O)c3ccc(CNC(C)C(C)(C)C)cc3)s2)cc1C(=O)N1CCN(C(C)=O)CC1 (centres undefined) | 0.0448 s⁻¹ | 548 µM |
| COc1c(O)cc2oc(-c3ccc(O)cc3)cc(=O)c2c1O | 0.476 s⁻¹ | 2320 µM |
| Cn1ncc(Cl)c1-c1cc(C(=O)N[C@H](CN)Cc2ccc(F)c(F)c2)sc1Cl | 0.688 s⁻¹ | 894 µM |
| CCc1cc2c(cc1-c1cnn(CC(=O)N(C)C)c1)C(C)(C)c1[nH]c3cc(C#N)ccc3c1C2=O | 0.307 s⁻¹ | 81 µM |
| COc1ncc(-c2ccc3nccc(C#CCN4CCN(S(C)(=O)=O)CC4)c3c2)cc1NS(=O)(=O)c1ccc(F)cc1F | 0.0971 s⁻¹ | 152 µM |
| C[C@@H]1CCNC(=O)c2cc3ccc(C(=O)Nc4nc5ccccc5n4CCCN(C)C)cc3n21 | 1.29 s⁻¹ | 549 µM |
| COc1ccc(C(OC[C@H]2O[C@@H](n3cc(C)c(=O)[nH]c3=O)C[C@@H]2OP(OCCC#N)N(C(C)C)C(C)C)(c2ccccc2)c2ccc(OC)cc2)cc1 (some centres undefined) | 0.489 s⁻¹ | 1800 µM |
| C[N+](C)(C)CCOP(=O)(OC[C@H]1O[C@@H](n2ccc(N)nc2=O)[C@H](O)[C@@H]1O)OP(=O)([O-])O (some centres undefined) | 0.083 s⁻¹ | 85.7 µM |
| CCN(CC)CCOc1ccc(Nc2nc(-c3ccccc3NC(=O)CCN3CCN(C)CC3)nc3ccccc23)cc1 | 0.927 s⁻¹ | 2030 µM |
| NC(=O)c1ncn([C@@H]2O[C@H](CO)[C@@H](O)[C@H]2O)n1 | 0.0106 s⁻¹ | 56.5 µM |
| CN1C(=O)C(Cc2c[nH]c3ccccc23)NC1=S (centres undefined) | 0.0673 s⁻¹ | 88.9 µM |
| COCCOc1ccc(-c2cn(-c3ccccc3)c3nc[nH]c(=O)c23)cc1 | 0.079 s⁻¹ | 71.1 µM |
| N#CCC1(n2cc(-c3ncnc4[nH]ccc34)cn2)CN(C2CCN(C(=O)c3ccnc(C(F)(F)F)c3F)CC2)C1 | 0.264 s⁻¹ | 197 µM |
| Cn1c(=O)c2c(nc(S(C)(=O)=O)n2C)n(CC#Cc2cccc(O)c2)c1=O | 0.337 s⁻¹ | 1670 µM |
| COc1cc(Nc2ncc3c(n2)-c2ccc(Cl)cc2C(c2c(F)cccc2OC)=NC3)ccc1C(=O)O | 0.225 s⁻¹ | 508 µM |
| Cn1cnc([N+](=O)[O-])c1C[N+](C)(C)C/C=C/C(=O)Nc1cc2c(Nc3ccc(Cl)c(Br)c3)ncnc2cn1 | 0.116 s⁻¹ | 3500 µM |
| Nc1ncnc2c1ncn2[C@H]1C[C@H](O)[C@@H](CO)O1 | 0.0268 s⁻¹ | 19100 µM |
| O=C(c1ccc(/C=C/c2n[nH]c3ccccc23)cc1)N1CCNCC1 | 1.04 s⁻¹ | 119 µM |

| Compound | dissociation rate constant koff [1] | apparent dissociation constant Kd [2] |
| --- | --- | --- |
| CC(C)(C)S(=O)(=O)c1ccc2nccc(Nc3n[nH]c4ccc(F)cc34)c2c1 | 0.227 s⁻¹ | 1690 µM |
| Cc1ccc(NC(=O)c2ccc(CN(CCN(C)C)C(=O)c3cccnc3)cc2)cc1Nc1nccc(-c2cccnc2)n1 | 0.139 s⁻¹ | 4050 µM |
| C/C(=C\CNc1ncnc2c1ncn2[C@@H]1O[C@H](CO)[C@@H](O)[C@H]1O)CO | 0.0133 s⁻¹ | 110 µM |
| NC(=O)c1c(OCc2c(F)cc(Br)cc2F)nsc1NC(=O)NCCCCN1CCCC1 | 0.329 s⁻¹ | 3440 µM |
| Nc1nc(F)nc2c1ncn2[C@@H]1O[C@H](COP(=O)(O)O)[C@@H](O)[C@@H]1O | 0.0222 s⁻¹ | 187 µM |
| CC(C)(O)CC(=O)NCCn1ccc2ncnc(Nc3ccc(Oc4cccc(C(F)(F)F)c4)c(Cl)c3)c21 | 0.0863 s⁻¹ | 3020 µM |
| CCOC(=O)c1cnc2ccc(-c3cncc(NS(=O)(=O)c4ccccc4)c3)cn12 | 0.917 s⁻¹ | 1780 µM |
| Cc1cnc(NC(=O)Nc2cc(Br)c(C)cc2OC[C@@H]2CNCCO2)cn1 | 12 s⁻¹ | 230 µM |
| O=C(NOCCO)c1ccc2cncn2c1Nc1ccc(I)cc1F | 0.00787 s⁻¹ | 39 µM |
| O=c1[nH]cc([C@@H]2O[C@H](CO)[C@@H](O)[C@H]2O)c(=O)[nH]1 | 0.0134 s⁻¹ | 64.5 µM |
| Cc1ccc2c(Nc3cccc(OC(F)(F)F)c3)nccc2c1Nc1ncccc1-c1ncnc2nc[nH]c12 | 0.0211 s⁻¹ | 137 µM |
| CC(C)n1cnc2c(NCc3nc4c(F)c(F)ccc4[nH]3)nc(N3CCCC[C@H]3CCO)nc21 | 0.18 s⁻¹ | 466 µM |
| COc1ccc(-c2nc(N3CCOCC3)c3sc(CN(C)c4ncc(C(=O)NO)cn4)cc3n2)cn1 | 0.111 s⁻¹ | 518 µM |
| O=C(NCCCNc1nc(Nc2cccc(NC(=O)N3CCCC3)c2)ncc1I)c1cccs1 | 0.506 s⁻¹ | 2240 µM |
| OCCN(CCO)c1ccc(C(c2ccc(Cl)cc2)c2ccc(N(CCO)CCO)cc2)cc1 | 0.136 s⁻¹ | 4720 µM |
| C=CC(=O)N(C)CCOc1c(N)ncnc1-c1cc(F)cc(NC(=O)c2ccc(C3CC3)cc2F)c1C | 0.815 s⁻¹ | 1540 µM |
| Cc1cc(Nc2ncnc3ccc(NC4=NC(C)(C)CO4)cc23)ccc1Oc1ccn2ncnc2c1 | 0.107 s⁻¹ | 2670 µM |
| O=c1cc(-c2ccc(O)cc2)oc2cc(O)c([C@@H]3O[C@H](CO)[C@@H](O)[C@H](O)[C@H]3O)c(O)c12 | 0.0598 s⁻¹ | 662 µM |
| C[C@@]1(O)[C@H](O)[C@@H](CO)O[C@H]1n1ccc(N)nc1=O | 0.0351 s⁻¹ | 330 µM |
| c1ccc(-c2nc3c(c(-n4ccc5cnccc54)n2)CCC3)nc1 | 0.691 s⁻¹ | 113 µM |
| COc1cc2c(Oc3ccc(NC(=O)C4(C(=O)Nc5ccc(F)cc5)CC4)cc3F)ccnc2cc1OCCCN1CCOCC1 | 0.0578 s⁻¹ | 3020 µM |
| Nc1ccc(CCNc2ncnc3c2ncn3[C@@H]2O[C@H](CO)[C@@H](O)[C@H]2O)cc1 | 0.0156 s⁻¹ | 56.3 µM |
| Cn1cc(-c2ccc3c(c2)CCN3C(=O)Cc2cccc(C(F)(F)F)c2)c2c(N)ncnc21 | 0.158 s⁻¹ | 3880 µM |
| CCCCCCCC/C=C\CCCCCCCC(=O)NCC(=O)O | 0.0166 s⁻¹ | 152 µM |
| COc1ccc([C@@H](O)c2cc(-c3ncnc4cc(N5CCOCC5)ccc34)c(F)cc2Cl)nn1 | 0.00278 s⁻¹ | 21.4 µM |

| Compound | dissociation rate constant koff [1] | apparent dissociation constant Kd [2] |
| --- | --- | --- |
| Cc1cc(Nc2ncc(F)c(N[C@H]3[C@@H](C(N)=O)[C@@H]4C=C[C@H]3C4)n2)ccc1N1CCN(C)CC1 | 0.703 s⁻¹ | 1830 µM |
| COc1cc(F)c(F)c(Nc2ccc(I)cc2F)c1NS(=O)(=O)C1(C[C@H](O)CO)CC1 | 0.413 s⁻¹ | 2550 µM |
| CN(c1ccc(NC(=O)Nc2ccc(OC(F)(F)F)cc2)cc1)c1ccnc(Nc2cccc(S(N)(=O)=O)c2)n1 | 0.0132 s⁻¹ | 233 µM |
| Nc1ncnc2c1ncn2C1CCCO1 (centres undefined) | 0.0139 s⁻¹ | 105 µM |
| Cn1c(N)nc2c(ncn2[C@@H]2O[C@H](CO)[C@@H](O)[C@H]2O)c1=O | 0.0288 s⁻¹ | 571 µM |
| CO[C@@H]1[C@H](O)[C@@H](CO)O[C@H]1n1cnc2c(N)ncnc21 | 0.0146 s⁻¹ | 95.9 µM |
| Cc1cn([C@@H]2O[C@H](CO)[C@@H](O)[C@H]2O)c(=O)[nH]c1=O | 0.0132 s⁻¹ | 191 µM |
| CN1CCC(CNc2ccc3ncc(-c4cccc(OC(F)(F)F)c4)n3n2)CC1 | 0.0535 s⁻¹ | 32.8 µM |
| N#Cc1ccc(-c2c(-c3ncn[nH]3)sc(N3CCOCC3)c2C#N)c(F)c1 | 0.258 s⁻¹ | 3330 µM |
| Clc1ccc(C(c2ccc(Cl)cc2)n2cc[n+](CC(OCc3ccc(Cl)cc3Cl)c3ccc(Cl)cc3Cl)c2)cc1 (centres undefined) | 0.00884 s⁻¹ | 7330 µM |
| COc1cccc(OC)c1C(=O)OCc1cc(O)ccc1O[C@@H]1O[C@H](CO)[C@@H](O)[C@H](O)[C@H]1O | 1.51 s⁻¹ | 991 µM |
| O=C(O)[C@H]1O[C@@H](Oc2cc3oc(-c4ccc(O)cc4)cc(=O)c3c(O)c2O)[C@H](O)[C@@H](O)[C@@H]1O | 0.103 s⁻¹ | 2960 µM |
| CC(C)(C)c1nc(-c2cccc(NS(=O)(=O)c3c(F)cccc3F)c2F)c(-c2ccnc(N)n2)s1 | 0.73 s⁻¹ | 1690 µM |
| OC1CCC(Nc2ncc3nc(Nc4c(F)cc(F)cc4F)n([C@H]4CCOC4)c3n2)CC1 (some centres undefined) | 1.43 s⁻¹ | 858 µM |
| CCn1cc(-c2ccc3c(c2)CCN3C(=O)Cc2cccc(OC(F)(F)F)c2)c2c(N)ncnc21 | 0.0488 s⁻¹ | 304 µM |
| CC(CCc1ccccn1)(CCc1ccccn1)C(=O)c1ccccc1 | 0.0976 s⁻¹ | 327 µM |
| CC(C)(C)C(=O)OCOP(=O)(COCCn1cnc2c(N)ncnc21)OCOC(=O)C(C)(C)C | 0.0114 s⁻¹ | 106 µM |
| COc1cc2c(N3CCN(C(=O)Nc4ccc(OC(C)C)cc4)CC3)ncnc2cc1OCCCN1CCCCC1 | 0.039 s⁻¹ | 21.3 µM |
| O=C(O)c1cccc(CN2C(=O)/C(=C(\c3ccccc3)c3ccc(Cl)cc3)c3ccccc32)c1 | 0.123 s⁻¹ | 6660 µM |
| C=CCc1ccc(O)c(-c2ccc(O)c(CC=C)c2)c1 | 0.231 s⁻¹ | 2070 µM |
| Cc1cn([C@@H]2O[C@H](CO)[C@@H](N=[N+]=[N-])[C@H]2O)c(=O)nc1N | 0.0258 s⁻¹ | 160 µM |
| CN1C(=O)[C@@H](NC(=O)c2cc(Cc3ccccc3)on2)COc2ccccc21 | 0.0856 s⁻¹ | 9.71 µM |
| c1cc(-c2cnn3cc(-c4ccc(OCCN5CCCCC5)cc4)cnc23)ccn1 | 0.0156 s⁻¹ | 8.94 µM |
| COc1ccc(C(OC[C@H]2O[C@@H](n3cnc4c(=O)[nH]c(NC(=O)C(C)C)nc43)[C@H](F)[C@@H]2OP(OCCC#N)N(C(C)C)C(C)C)(c2ccccc2)c2ccc(OC)cc2)cc1 (some centres undefined) | 0.0363 s⁻¹ | 9610 µM |
| Nc1ncccc1-c1nc2ccc(-c3ccccc3)nc2n1-c1ccc(C2(N)CCC2)cc1 | 0.0774 s⁻¹ | – |
